Where “and” joins values, the source holds several entries; their conditions need not be identical. Identical values can stand only once. The campaign covered roughly 50,000 compounds. About 800 (1.6%) showed an effect of 50% or more. The list shows a part of the results.
What follows are compounds tested against Bcl-2-like protein 10 (Homo sapiens) (UniProt Q9HD36) (assay: TR3 peptide-Bcl-B binding displacers, biochemical primary FP assay, phenotype converters (AID 1240;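 further: 0% = Bcl-B with tracer peptide and DMSO and 100% = tracer peptide lacking Bcl-B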)). Conditions: GST-Bcl-B / FITC-TR3 peptide fluorescence polarization; stronger effect = higher value; compound at 3.75 mg/L.
Chain of UniProt Q9HD36 (Q9HD36 whole entry, looked up): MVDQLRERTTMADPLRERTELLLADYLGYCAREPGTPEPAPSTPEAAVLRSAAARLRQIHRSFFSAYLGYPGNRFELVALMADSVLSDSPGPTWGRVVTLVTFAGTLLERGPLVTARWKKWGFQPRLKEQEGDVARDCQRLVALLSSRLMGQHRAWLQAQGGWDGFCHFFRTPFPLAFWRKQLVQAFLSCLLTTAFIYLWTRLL

Compound | displacement
CC(=O)Nc1ccc(S(=O)(=O)Nc2cccc(C(C)=O)c2)cc1 | -7.3%
COc1ccc(NC(=O)N2CCN(c3ccc([N+](=O)[O-])cc3)CC2)cc1 | -5.5%
COc1cc(OC)cc(C(=O)Nc2ccc(NC(=O)c3ccco3)c(OC)c2)c1 | -5.3%
CC1(C)Cc2ccccc2-c2nnc(-c3cccnc3)n21 | 4.8% and -5.6%
Cn1cc(C(=O)N/N=C/c2cccc([N+](=O)[O-])c2)ccc1=O | 1.8%
COc1cc(NC(=O)COc2ccccc2C)c(OC)cc1Cl | -6.7%
CCCCSc1nnc(-c2ccccc2N)c(=O)[nH]1 | 8.6%
CN1CCN(C(=O)CN2C(=O)/C(=C/c3ccccc3)SC2=S)CC1 | 9.9%
CCCCOc1ccc(C(=O)NCCc2ccc(Cl)cc2)cc1 | -16.2%
CC(=O)C1=C(O)C(=O)N(CCN2CCNCC2)C1c1cccc([N+](=O)[O-])c1 (stereo not given) | -6.9%
CC(=O)Oc1ccc2nc(-c3ccc([N+](=O)[O-])c(C)c3)oc(=O)c2c1 | 16.1%
COc1cc(C=C2C(=O)NC(=S)NC2=O)ccc1OCCO | -5.9%
Cc1ccc(C(C)C)c(OC(=O)c2ccccc2Br)c1 | 5.8%
CC1=NN(c2ccc(Cl)c(Cl)c2)C(=O)/C1=C/c1cccc([N+](=O)[O-])c1 | 8.5%
CCOC(=O)CC(=O)Nc1ccccc1C(=O)OCC | 7.3%
O=C(O)/C(=C/C(=O)c1ccccc1)N=Nc1c(O)[nH]c2ccccc12 | 13.6%
CC(C)CC(=O)Nc1cc(C(=O)O)cc(C(=O)O)c1 | 13.4%
C/C(=N\NC(=O)c1cccc(Br)c1)c1ccccn1 | -1.6%
COc1ccc2occ(C(=O)c3ccccc3Cl)c(=O)c2c1 | 9.1%
CCOC(=O)c1c(NC(=O)c2cc3ccccc3oc2=O)sc(C)c1CC | 6.7%
N#Cc1cnc(N)c(C#N)c1Nc1ccccc1 | 6.5%
COc1cc(NC(=O)COc2ccc3ccccc3c2)cc(OC)c1 | 11.4%
Cc1cccc(N2C(=O)c3ccc(C(=O)O)cc3C2=O)c1C | 2.2%
O=S(=O)(c1ccc2ccccc2c1)N(CC(O)CN1CCCCC1)c1ccccc1 (stereo not given) | -0.4%

Compound | displacement
COc1cc(/C=N\NC(=O)CNc2ccc(C)cc2)ccc1OC(=O)c1cccs1 | 8.5%
Cc1ccc(C2Nc3ccccc3C(=O)N2Cc2ccccc2)cc1 (stereo not given) | 12.9%
COc1ccc(OC)c(C(O)c2nccn2C)c1 (stereo not given) | 9.9%
Cc1cc(=O)oc2c(C)c(OC(=O)c3ccccc3)ccc12 | 2.5%
O=C1OC(c2ccccc2F)=N/C1=C\c1ccc(OC(=O)c2ccccc2Cl)cc1 | 1.5%
Clc1ccc(Cc2nnn(-c3ccccc3)n2)cc1 | 5.2%
O=C(N/N=C/c1cccc(Cl)c1)c1ccncc1 | 1.8%
CC(=O)Oc1ccc(C(=O)Nc2cccc(C(=O)O)c2C)cc1 | 3.9%
COc1cc(NC(=O)c2ccc3c(c2)C(=O)N(C2CCCCC2)C3=O)c(C(=O)O)cc1OC | 4%
COc1ccc(CSc2nnnn2-c2ccccc2)cc1 | -10.4%
O=c1c2c(nc3cc(-c4ccc(I)cc4)[nH]n13)CCS2 | 97.5%
Cc1ccc(C(C)(C)C)c(OCC(=O)Nc2ccccc2F)c1 | 3.3%
O=C(Nc1cccc2ccccc12)C1OC2OC3(CCCCC3)OC2C2OC3(CCCCC3)OC12 (stereo not given) | -7.4%
Cc1ccc(N(CC(=O)Nc2ccc(I)cc2)S(C)(=O)=O)cc1Cl | 7.9%
C=CCN1C(=O)/C(=C\c2cc3c(cc2[N+](=O)[O-])OCO3)SC1=S | 10.8%
COc1ccc(Cl)cc1C(=O)Nc1ccccc1Br | 30.2%
Oc1ccccc1/C=N/Nc1c(Cl)cc(Cl)cc1Cl | 3.3%
CCOc1ccc(-c2cc(C(=O)N/N=C/C=C/c3ccccc3)[nH]n2)cc1 | -2.6%
CS(=O)(=O)N(CC(=O)Nc1ccc2ccccc2c1)c1ccc(Br)cc1 | -0.4%
COc1cc(C(=O)N2CC(C)OC(C)C2)c([N+](=O)[O-])cc1OC (stereo not given) | -0.2%
COc1ccc(C2C(C(=O)OC(C)(C)C)C(=O)CC(C)(O)C2C(=O)OC(C)(C)C)cc1OC (stereo not given) | -11.5%
CCOc1cc(OCC)cc(C(=O)Nc2ccc(Cl)cn2)c1 | 12.3%
COc1ccc(CCNC(=O)c2ccccc2[N+](=O)[O-])cc1 | -5.9%
O=C(Nc1cccc(Oc2ccc(C(=O)O)c(C(=O)O)c2)c1)c1ccc(-c2ccccc2)cc1 | 9.2%

Compound | displacement
O=C(NC(=S)Nc1ccc(O)c(-c2nc3ccccc3o2)c1)c1ccco1 | 15.2%
COc1ccc(C(OC(=O)NC(O)C(Cl)(Cl)Cl)P(=O)(OC(C)C)OC(C)C)cc1 (stereo not given) | -0.3%
CCOc1cc(OCC)cc(C(=O)Nc2cccc3nsnc23)c1 | 13.4%
Cc1ccc(C(=O)Nc2ccc(Cl)cc2Cl)o1 | 7.5%
COc1ccccc1NC1=NC2(CCCCC2)N=C(N)N1 | 0.1%
O=S(=O)(Nc1ccc(O)cc1)c1ccc(Br)cc1 | 12.2%
O=C(O)CCCCCN1C(=O)C(=O)/C(=C(/O)c2ccc(F)cc2)C1c1ccccc1F (stereo not given) | -7.2%
Cc1cc2nc(-c3cc(NC(=O)COc4ccccc4[N+](=O)[O-])ccc3Cl)oc2cc1C | -23.2%
O=C(NC(=S)Nc1ccccc1)c1ccccc1 | 4.7%
Cc1ccc(C2CC(C(F)(F)F)n3nc(C(=O)O)cc3N2)cc1 (stereo not given) | -4.1%
COC(=O)c1c(NC(=O)c2ccc(F)cc2)sc(Cc2ccccc2)c1C | -6.6%
COc1ccccc1NC(=O)c1sc(N)c(C(=O)OC(C)C)c1C | -4.5%
COC(=O)CN(c1ccccc1C)S(=O)(=O)c1ccc(C)cc1 | 0.1%
CC(=O)N(Cc1ccco1)C1CC(=O)N(c2ccc(Cl)cc2)C1=O (stereo not given) | -3.8%
CC12CCC(C(=O)N(c3nc(-c4ccccc4)cs3)C1=O)C2(C)C (stereo not given) | 0.6%
O=C(NC(NC(=S)Nc1ccccc1Cl)C(Cl)(Cl)Cl)c1ccccc1Br (stereo not given) | 1%
O=C(N/N=C/c1cccc(Cl)c1Cl)c1cc(Br)ccc1O | 3.3%
CS(=O)(=O)c1ccc2nc(NC(=O)c3ccc(Cl)c(Cl)c3)sc2c1 | 11.8%
COc1ccc(S(=O)(=O)N2CCN(Cc3cc(OC)ccc3OC)CC2)cc1 | -4.3%
COc1ccc(C(c2c(O)cc(C)oc2=O)c2c(O)cc(C)oc2=O)cc1 | -10.3%
COc1cc(NC(=O)c2cc3nc(-c4ccc5c(c4)OCO5)cc(C(F)(F)F)n3n2)c(OC)cc1Cl | 2.8%
COc1ccc(OC)c(C2/C(=C(\O)c3ccc(C)cc3)C(=O)C(=O)N2CCCC(=O)O)c1 (stereo not given) | 4%

From PubChem BioAssay AID1240 (Sanford-Burnham Center for Chemical Genomics, 2008)
